# Columns and labels:
# HSV-1, strain KOS = assay: HSV-induced stromal keratitis in C.AL.20 mice, intramuscular treatment; details: days 7 to 11
# [1] = system: HSV-1 ICP0, ICP4, ICP8, TK and gC transcripts; assay: RNase protection assay of viral transcripts, infected Vero cells; details: 100 μM Rosco added immediately after adsorption
smiles,measurement,setting,value
"CC[C@H](CO)Nc1nc(NCc2ccccc2)c2ncn(C(C)C)c2n1 [Rosco, Roscovitine]",average loss of original body weight at the peak of weight loss,"HSV-1, strain KOS",4.6%
same,accumulation of HSV immediate-early and early transcripts,[1],efficiently inhibited

# From US20030099944A1, “Combination therapy involving drugs which target cellular proteins and drugs which target pathogen-encoded proteins” (priority 1998, published 2003)
